# In article PMC4336329 (PLoS ONE, 2015):
# The campaign covered roughly 310,000 compounds. About 14,000 (4.5%) showed an effect of 50% or more. The effect is printed as a negative number. Some of the results follow.
# Target: human ether-à-go-go-related gene (hERG) potassium channel (human, UniProt Q12809)
# Test: primary screen, population patch clamp on CHO cells stably expressing hERG
# 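Note: peak tail current of the secondary pulse compared with the same well before compound.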
# Sequence of human ether-à-go-go-related gene (hERG) potassium channel (Q12809 whole entry, looked up): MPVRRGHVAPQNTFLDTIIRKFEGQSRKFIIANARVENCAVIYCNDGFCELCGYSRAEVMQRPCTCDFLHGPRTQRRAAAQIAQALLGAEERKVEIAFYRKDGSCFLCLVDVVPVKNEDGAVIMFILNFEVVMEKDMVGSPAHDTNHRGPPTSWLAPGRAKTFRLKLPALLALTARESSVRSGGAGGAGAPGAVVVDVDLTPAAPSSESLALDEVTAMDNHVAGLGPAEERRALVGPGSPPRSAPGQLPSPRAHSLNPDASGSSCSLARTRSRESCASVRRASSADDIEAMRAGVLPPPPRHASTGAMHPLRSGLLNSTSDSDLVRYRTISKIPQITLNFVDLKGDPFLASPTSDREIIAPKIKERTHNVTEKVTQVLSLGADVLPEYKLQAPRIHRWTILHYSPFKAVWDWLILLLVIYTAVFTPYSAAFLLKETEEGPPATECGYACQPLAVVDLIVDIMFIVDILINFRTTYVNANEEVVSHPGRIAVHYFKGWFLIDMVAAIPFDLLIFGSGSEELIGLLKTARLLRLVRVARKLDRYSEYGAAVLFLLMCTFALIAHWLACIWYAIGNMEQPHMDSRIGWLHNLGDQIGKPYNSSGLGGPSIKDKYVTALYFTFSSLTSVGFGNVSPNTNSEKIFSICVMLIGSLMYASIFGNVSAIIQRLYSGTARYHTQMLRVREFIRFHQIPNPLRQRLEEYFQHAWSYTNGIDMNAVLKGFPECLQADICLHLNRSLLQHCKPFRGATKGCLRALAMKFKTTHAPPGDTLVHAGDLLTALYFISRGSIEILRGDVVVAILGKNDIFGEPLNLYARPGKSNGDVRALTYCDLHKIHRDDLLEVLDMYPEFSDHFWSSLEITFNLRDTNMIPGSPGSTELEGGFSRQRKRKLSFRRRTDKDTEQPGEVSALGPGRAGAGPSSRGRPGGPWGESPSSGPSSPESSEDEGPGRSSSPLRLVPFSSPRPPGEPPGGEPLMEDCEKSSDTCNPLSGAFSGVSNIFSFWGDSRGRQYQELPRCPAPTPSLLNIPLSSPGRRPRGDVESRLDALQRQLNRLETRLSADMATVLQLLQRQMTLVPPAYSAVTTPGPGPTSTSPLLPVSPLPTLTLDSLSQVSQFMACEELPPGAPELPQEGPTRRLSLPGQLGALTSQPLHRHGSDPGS
row,SMILES,"hERG current change (%, negative = inhibition) at 10uM [%]"
1,CCOc1ccccc1N(CC)C(=O)c1ccc2c(=O)n3c(nc2c1)CCCCC3,-7.22
2,CN(C)c1ncc([N+](=O)[O-])cc1C(F)(F)F,19.6
3,COc1ccccc1-c1nc2ccc(Cl)cc2c(=O)n1O,10.3
4,O=C(Nn1cnc2ccccc2c1=O)c1ccc([N+](=O)[O-])cc1Cl,14.1
5,Cc1cc(C)c(CN2CCC(n3nccc3NC(=O)C3CCCC3)CC2)cc1C,-70.7
6,CCC(C)CCCCCCCCCCC(=O)O (stereo not drawn),36.1
7,Nc1[nH]nc2nc(NCc3ccccc3)c3c(c12)CCN(Cc1ccccc1)C3,-30.1
8,NC(=O)Nc1ccc(C(=O)OCC(=O)N(Cc2ccccc2)C2CCS(=O)(=O)C2)cc1 (stereo not drawn),39.5
9,CC(C)(C)c1ccc(C(=O)N2CCN(Cc3ccccc3)CC2)cc1,-3.08
10,CCOc1ccc(S(=O)(=O)Nc2ccc(C(=O)N3CCCC3)cc2)cc1,4.68
11,CSc1cccc(NC(=S)N(CCCN2CCCC(C)C2)Cc2cccs2)c1 (stereo not drawn),-75.6
12,C=C(C)COc1ccc2c(CC)cc(=O)oc2c1,-20
13,Cc1cc(C(=O)Nc2ccc(C(=O)O)cc2)c(-c2ccccc2)o1,-6.94
14,CCCCc1ccccc1NC(=S)NC1CCCC1,-2.82
15,Cc1nn(Cc2cccc(C(=O)NN)c2)c(C)c1Cl,8.48
16,CCCS(=O)(=O)N1CCc2ccc(NC(=O)C3CCCO3)cc2C1 (stereo not drawn),-16.2
17,Cc1nn2c(SCC(=O)c3cccs3)cc(C(C)(C)C)nc2c1-c1ccccc1,4.2
18,CC1CN(S(=O)(=O)c2cccc(C(=O)N=c3sccn3C)c2)CC(C)O1 (stereo not drawn),-6.06
19,Cc1ccc(-n2nccc2-c2nn(-c3cccc(C(F)(F)F)c3)c(=O)n(C)c2=O)cc1,14.9

row,SMILES,"hERG current change (%, negative = inhibition) at 10uM [%]"
1,CC(=O)c1ccc(NC(=O)CSc2nnc(Cc3cccn3C)n2-c2ccc(F)cc2)cc1,-12.9
2,O=C(CCN1CCN(S(=O)(=O)c2ccc(Br)cc2)CC1)Nc1ccccc1F,-31.2
3,CCOC(=O)CNC(=O)C1CCN(S(=O)(=O)c2ccc(-c3nn[nH]n3)cc2)CC1,8.58
4,O=S(=O)(c1ccccc1)N1CCN(S(=O)(=O)c2ccccc2)C1,-11.5
5,Cn1nc(C(=O)NC2=NCCS2)ccc1=O,2.66
6,CCn1c(=O)cc(SCC(=O)Nc2ccc(C)cn2)c2ccccc21,4.05
7,CC(=O)NNC(=S)NC(=O)c1cccc([N+](=O)[O-])c1,13.1
8,CCn1nccc1C(=O)Nc1ccc(Cl)cc1Cl,0.258
9,CCOCCN(C=O)c1cccc(OC)c1,1.49
10,COc1ccc(NS(=O)(=O)c2cccc(C(=O)OCC(=O)NC3CC3)c2)cc1,3.33
11,COC(=O)C1=C(c2ccc(OC(F)(F)F)cc2)C[C@@H]2CC[C@H]1N2C(=O)N1CCCCC1,-56.3
12,CNC(=O)/C(C#N)=C/c1c(N2CCN(C)CC2)nc2c(C)cccn2c1=O,17.2
13,Cc1[nH]nc(SCC(=O)NCc2ccc(F)cc2)c1[N+](=O)[O-],9.21
14,CCn1cc(C(=O)NCCCN2CCCC(C)C2)c(=O)c2cc(S(=O)(=O)N(C)C3CCCCC3)ccc21 (stereo not drawn),-80.1
15,Cc1ccc2c(c1)OC(c1ccc3c(c1)OCCO3)CC2=O (stereo not drawn),16.3
16,COc1ccc(CNC(=O)c2cnc(C)cn2)cc1,5.01
17,COc1ccc([N+](=O)[O-])cc1N(CC(=O)NC1CCCCC1)S(C)(=O)=O,5.91
18,Cc1cccc(NC(=O)C2CCN(S(=O)(=O)c3c(C)noc3/C=C/c3ccco3)CC2)n1,-7.68
19,CCC1CCCCN1C(=O)c1cc(COc2ccc(-n3cncn3)cc2)on1 (stereo not drawn),-48.5

row,SMILES,"hERG current change (%, negative = inhibition) at 10uM [%]"
1,OCCC1CN(Cc2cccn2-c2nccs2)CCN1Cc1ccc(F)c(F)c1 (stereo not drawn),-80.7
2,O=c1[nH]c2ccccc2nc1/C=C(\O)c1cccs1,19.5
3,COc1ccc(-c2cc(-c3ccc(F)cc3)nc(N3CCN(C)CC3)n2)cc1,-3.88
4,COC(=O)C1=C(C)NC2=C(C(=O)CCC2)C1c1cn(Cc2ccc(Br)cc2)nc1-c1ccccc1 (stereo not drawn),-32.3
5,COc1cc([C@H]2[C@@H]3CCCC[C@]3(O)CCN2Cc2ccccc2F)ccc1O,-12.8
6,O=C(CN1C(=O)/C(=C/c2cccc(Br)c2)SC1=S)N1CCCC1,7.44
7,CC(CCc1ccc(O)cc1)N1CCC(Oc2ccc(C(=O)N3CCCC3)cc2)CC1 (stereo not drawn),-55.7
8,COc1cc(NS(=O)(=O)c2ccc(F)cc2)c(OC)cc1NC(C)=O,2.46
9,CCC(=O)NNC(=O)c1cc(COc2cc(Cl)cc(Cl)c2)on1,8.64
10,COc1cccc(CC2(CO)CCCN(Cc3ccccc3-c3ccco3)C2)c1 (stereo not drawn),-75.8
11,CCCCC(=O)Nc1ccc(C(=O)NCCc2ccc(S(N)(=O)=O)cc2)cc1,23.2
12,O=S(=O)(c1ccc(Br)cc1)c1cnc2ccccc2n1,-2.37
13,Nc1nc(O)c(N=Nc2ccc(S(N)(=O)=O)cc2)c(=O)[nH]1,20.4
14,COc1ccc(-c2noc(CCCC(=O)O)n2)cc1,-3.93
15,O=C(Nc1ccccc1N1CCCCC1)c1cccc(F)c1,-3.29
16,O=C(NC1CCCCC1)N1CCc2ccccc21,-8.44
17,CCc1ccccc1NS(=O)(=O)c1ccc2c(c1)NC(=O)CC(=O)N2,5.13
18,CCC(=O)OCC(=O)N=c1sccn1Cc1ccccc1Cl,6.32
19,O=C(NN1CCOCC1)c1ccc(Cl)c([N+](=O)[O-])c1,4.8
